Measurements: the supplement of paper PMC7826260
This is one part of the list. One pool of 16,384 single-stranded DNAs met each Rep nickase domain in vitro (3 µM enzyme, 1 h, 37 °C); shown is the middle of each 90-letter strand. Values are log2 of uncut reads against the no-enzyme pool; the lower, the more was cut; hits are not called. Because reads are shares of a total, they shift together; uncut strands gain when others are lost, and binding without cutting may add a little.

Columns and labels:
Assay in all cases: uncleaved DNA left, log2 of reads against the no-enzyme library (log2 ratio); higher = less cleavage (more negative = more Rep cleavage of the k-mer); sequences stand for … in CTCGTCCG…ACCGGAGA
[1] = test system: T1, Rep nickase domain of Muscovy duck circovirus
T1 sequence (residues 1-111, tag not shown): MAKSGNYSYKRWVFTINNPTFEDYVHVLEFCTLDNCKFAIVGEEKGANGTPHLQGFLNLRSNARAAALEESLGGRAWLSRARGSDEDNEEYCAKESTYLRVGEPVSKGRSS
Method: (§1)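 A pool of 90-nt single-stranded DNAs with seven random bases just before the constant AC of the nick site (name = the seven bases) was cut by 3 µM recombinant His6-SUMO-tagged Rep nickase domain (300 nM DNA, 50 mM HEPES pH 8.0, 50 mM NaCl, 1 mM MnCl2, 1 h, 37 °C, three replicates). Uncut DNA was amplified and sequenced.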

[2] = test system: T2, Rep nickase domain of banana bunchy top virus
T2 sequence (residues 1-94, tag not shown): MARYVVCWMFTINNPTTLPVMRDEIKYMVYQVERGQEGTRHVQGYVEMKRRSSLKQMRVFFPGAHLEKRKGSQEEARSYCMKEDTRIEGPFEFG
Method: as §1

[3] = test system: T3, Rep nickase domain of cabbage leaf curl virus
T3 sequence (residues 1-116, tag not shown): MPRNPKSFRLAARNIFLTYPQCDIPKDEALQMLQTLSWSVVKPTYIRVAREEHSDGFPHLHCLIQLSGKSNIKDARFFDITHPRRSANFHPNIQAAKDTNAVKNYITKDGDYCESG
Method: as §1

[4] = test system: T4, Rep nickase domain of chickpea chlorotic dwarf virus
T4 sequence (residues 1-124, tag not shown): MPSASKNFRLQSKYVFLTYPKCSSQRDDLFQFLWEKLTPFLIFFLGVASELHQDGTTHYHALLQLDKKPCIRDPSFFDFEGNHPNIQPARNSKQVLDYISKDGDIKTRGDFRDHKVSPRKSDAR
Method: as §1

[5] = test system: T5, Rep nickase domain of faba bean necrotic yellows virus
T5 sequence (residues 1-98, tag not shown): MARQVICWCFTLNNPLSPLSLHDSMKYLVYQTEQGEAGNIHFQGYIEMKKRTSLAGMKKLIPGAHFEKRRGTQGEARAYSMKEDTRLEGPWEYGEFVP
Method: as §1

[6] = test system: T6, Rep nickase domain of maize striate mosaic virus
T6 sequence (residues 1-117, tag not shown): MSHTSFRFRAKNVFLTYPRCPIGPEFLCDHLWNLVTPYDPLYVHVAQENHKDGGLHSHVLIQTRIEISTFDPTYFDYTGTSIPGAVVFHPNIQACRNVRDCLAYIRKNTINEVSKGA
Method: as §1

[7] = test system: T7, Rep nickase domain of porcine circovirus 2
T7 sequence (residues 2-116, tag not shown): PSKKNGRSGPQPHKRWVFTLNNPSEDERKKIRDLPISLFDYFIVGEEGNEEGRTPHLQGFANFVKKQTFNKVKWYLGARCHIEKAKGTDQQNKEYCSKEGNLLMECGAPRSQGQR
Method: as §1

[8] = test system: T8, Rep nickase domain of tomato yellow leaf curl virus
T8 sequence (residues 1-136, tag not shown): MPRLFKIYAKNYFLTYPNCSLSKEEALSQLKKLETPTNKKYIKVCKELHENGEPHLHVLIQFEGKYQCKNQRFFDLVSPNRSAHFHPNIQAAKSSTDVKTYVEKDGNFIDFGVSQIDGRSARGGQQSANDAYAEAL
Method: as §1

[9] = test system: T9, Rep nickase domain of wheat dwarf virus
T9 sequence (residues 1-137, tag not shown): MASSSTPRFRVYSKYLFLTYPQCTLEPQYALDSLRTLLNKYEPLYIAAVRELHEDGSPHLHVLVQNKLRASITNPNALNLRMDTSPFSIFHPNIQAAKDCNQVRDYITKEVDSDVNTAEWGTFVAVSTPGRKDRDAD
Method: as §1

| Sequence | uncleaved DNA left (log2) [1] | uncleaved DNA left (log2) [2] | uncleaved DNA left (log2) [3] | uncleaved DNA left (log2) [4] | uncleaved DNA left (log2) [5] | uncleaved DNA left (log2) [6] | uncleaved DNA left (log2) [7] | uncleaved DNA left (log2) [8] | uncleaved DNA left (log2) [9] |
| --- | --- | --- | --- | --- | --- | --- | --- | --- | --- |
| ACTGTAT | 0.136 | -0.0178 | -0.0748 | 0.137 | 0.0549 | 0.259 | -0.01 | 0.00582 | 0.0614 |
| TGTCGAA | 0.0707 | -0.0107 | 0.0254 | -0.383 | 0.02 | -0.676 | -0.189 | -0.0117 | -0.109 |
| CTTCATC | -0.0514 | 0.0588 | 0.0387 | -0.239 | -0.187 | -0.843 | 0.084 | 0.0351 | 0.0699 |
| GCTATAA | -0.089 | -0.0393 | 0.0498 | 0.424 | 0.00995 | 0.353 | 0.0378 | -0.0111 | 0.119 |
| ATTGAAG | 0.0205 | -0.0408 | -0.886 | -0.143 | 0.0304 | -0.996 | 0.095 | -0.00206 | -0.173 |
| GGAGACT | 0.0328 | 0.209 | 0.88 | 2.1 | 0.036 | 2.34 | 0.252 | 0.0697 | 0.199 |
| GGATCTT | -0.275 | 0.0234 | 0.711 | 1.49 | -0.0783 | 2.08 | -0.8 | 0.0174 | 0.162 |
| GCAGACC | 0.00327 | 0.146 | 0.0654 | 0.61 | 0.056 | 0.585 | 0.0523 | -0.0738 | 0.0377 |
| CTTCGCT | -0.00853 | -0.0347 | -0.309 | -1.43 | -0.0859 | -0.976 | 0.00696 | -0.0734 | -0.115 |
| TACAATC | -0.0401 | 0.0208 | -0.149 | -0.522 | 0.0587 | -0.362 | 0.0132 | 0.0873 | 0.0326 |
| GACTTAG | 0.161 | 0.11 | -0.476 | -0.453 | 0.0559 | -0.92 | 0.113 | 0.0238 | 0.0641 |
| CCGAGGT | -0.0732 | -0.0095 | 0.322 | 0.763 | -0.0123 | 1.12 | 0.0751 | -0.151 | 0.0276 |
| GACCTGA | 0.0468 | -0.00738 | 0.236 | 0.553 | -0.0566 | 0.761 | 0.0188 | 0.0772 | 0.0894 |
| TGCATGG | 0.0731 | -0.00778 | 0.169 | 0.302 | -0.0351 | -0.164 | 0.112 | -0.0263 | -0.0665 |
| GGGCGTA | -0.0422 | -0.0281 | 0.691 | 1.78 | -0.267 | 2 | 0.184 | -0.112 | 0.0457 |
| ATCGATT | -0.153 | -0.0786 | -0.118 | -1.4 | 0.107 | -0.0444 | -0.119 | -0.171 | 0.00623 |
| GCATGTG | 0.055 | 0.00188 | -0.646 | -0.123 | 0.00827 | -0.751 | 0.185 | 0.124 | -0.0178 |
| TACTCTC | -2.23 | -0.41 | -0.95 | -2.02 | -0.0112 | -0.411 | -3.11 | -0.149 | -0.151 |
| CTGCCCC | -0.343 | -0.164 | 0.0836 | -0.196 | -0.142 | -0.112 | -0.6 | -0.0924 | -0.11 |
| CCGTTGG | -0.0253 | 0.0141 | -0.535 | -0.602 | 0.0767 | -1 | 0.133 | 0.0061 | -0.191 |
| TCGGCTG | 0.0719 | 0.0619 | 0.12 | 0.776 | 0.0331 | 1.74 | 0.13 | -0.0983 | 0.0839 |
| GCAGCTG | 0.000444 | 0.121 | 0.243 | 1.16 | 0.109 | 1.41 | 0.162 | -0.0494 | -0.0426 |
| CACACAC | 0.00764 | -0.0189 | -0.0794 | -0.393 | -0.0539 | -0.651 | 0.0745 | -0.0704 | -0.0275 |
| ACTGCGC | -0.00946 | -0.0405 | -0.465 | 0.226 | 0.108 | -0.501 | 0.0962 | 0.0221 | 0.0231 |
| TTATGCG | -0.00058 | -0.153 | -0.273 | 1.04 | -0.0541 | 0.36 | 0.0845 | -0.214 | -0.0921 |
| AGAAAAT | 0.0227 | -0.0147 | 0.212 | 0.202 | -0.00789 | 0.0535 | -0.197 | -0.018 | 0.0637 |
| GTTTCTA | 0.0641 | 0.109 | 0.385 | 0.94 | 0.0109 | 1.86 | 0.0617 | 0.0716 | 0.149 |
| CCCTGAT | -0.237 | -0.135 | 0.0889 | -0.0595 | -0.00314 | 0.27 | -1.85 | -0.181 | -0.0981 |
| AGTCTCT | 0.0334 | -0.0346 | 0.117 | -1.24 | -0.122 | 0.313 | -3.15 | 0.0256 | -0.0533 |
| GTCGAAA | 0.221 | 0.0261 | 0.36 | 1.01 | -0.0773 | 1.69 | 0.148 | 0.2 | 0.189 |
